Measured values taken from PubChem BioAssay AID1508642 (National Center for Advancing Translational Sciences (NCATS), 2021).
Hit rate of the full screen: of about 43,000 compounds, about 200 (0.47%) were called active. Not shown: some 12% with an inconclusive outcome. Calls come from the whole dose curve; as a rule, active = well fitted cell-killing curve with a large enough effect; inconclusive = small, poorly fitted or top-dose-only effect, or effect the other way; inactive = flat fitted curve, though single readings scatter. This is one part of the list.

Assay: Cell viability qHTS assay in S16 Pmp22-F2sN cells; note: nearly all actives have a fitted effect of over 65% in size
Conditions: S16 Pmp22-F2sN Schwann cells (luciferase reporters placed in the Pmp22 gene) viability, CellTiter-Glo, 24 h; series mostly up to 57.5 µM; activity change, negative = cytotoxicity: at the top concentration
How it was run: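 Seed 500-1,000 S16 Pmp22-F2sN cells per well in phenol-red-free DMEM with 10% heat-inactivated FBS; pin-add 23 nL compound; incubate 24 h at 37C; add CellTiter-Glo, wait 15 min protected from light; read luminescence.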
% is set by controls: 0 for no effect and ±100 for the full control effect.

Row | SMILES | activity change, negative = cytotoxicity
1 | CSc1cccc(Nc2nc3c(S(=O)(=O)c4ccccc4)nnn3c3ccc(Cl)cc23)c1 | inactive: -3.96%
2 | O=C(Cn1ncc2ccc(Cl)cc21)NCc1ccc(F)cc1 | inactive: 0.29%
3 | Cc1ccc(C)c(NC(=O)CSc2ncc(S(=O)(=O)c3ccc(C)c(Cl)c3)c(=O)[nH]2)c1 | inactive: 1.77%
4 | Cc1c(Cl)cccc1NC(=O)Nc1nnc(N2CCCCCC2)s1 | inactive: 4.91%
5 | Cc1ccc(C(=O)Nc2cccc(C(=O)O)c2)cc1S(=O)(=O)N1CCCC1 | inactive: 8.1%
6 | COc1ccc(Cn2c(SCc3ccc(C(=O)NC(C)C)cc3)nc3cccnc32)cc1 | inactive: 0.926%
7 | COc1ccccc1NC(=O)c1cccc(S(=O)(=O)N2CCCCCC2)c1 | inactive: 15.7%
8 | CC(C)(C)C1CCc2c(sc(NC(=O)Cn3nnc(-c4ccccc4F)n3)c2C#N)C1 (stereo not drawn) | inactive: 4.28%
9 | O=C(Cn1c(=O)c2cccn2c2ccccc21)Nc1cc(F)ccc1F | inactive: 3.66%
10 | CCOc1ccc(N(C(=O)Cn2nnc3ccccc32)C(C(=O)NCc2ccccc2)c2ccc(OC)cc2)cc1 (stereo not drawn) | inactive: 14.9%
11 | CCOC(=O)c1cc(-c2ccccc2)n(-c2cccc(C(=O)Nc3ccc(OC)cc3)c2)c1C | inactive: 6.63%
12 | CCc1ccc(-c2nn(CC(=O)Nc3ccccc3)c3c2cnc2ccc(F)cc23)cc1 | inactive: 5.01%
13 | Cc1ccc(CCNC(=O)Cn2nc(-c3ccc(C)cc3)ccc2=O)cc1 | inactive: 0.776%
14 | CCN(CC)CCNC(=O)c1cn(CC)c2ccc(S(=O)(=O)N3CCOCC3)cc2c1=O | inactive: 17.4%
15 | COc1ccc(OCC(=O)OCc2cc(=O)n3nc(C4CCCCC4)sc3n2)cc1 | inactive: 8.15%
16 | COc1ccc(-c2[nH]ncc2C(=O)NCc2ccccc2C)cc1 | inactive: -17.9%
17 | CC(=O)N1CCCc2cc(S(=O)(=O)N3CCC(C(=O)NCc4ccc(C)cc4)CC3)ccc21 | inactive: 2.25%
18 | COC(=O)c1ccccc1NC(=O)Cn1c(=O)n(-c2cccc(OC)c2)c(=O)c2c(C)c(C(=O)N(C)C)sc21 | inactive: -5.23%
19 | Cc1onc(-c2ccccc2Cl)c1C(=O)Oc1cc(F)cc(F)c1 | inactive: 1.36%
20 | Cc1ccc(C(=O)NCc2ccc(N(C)C)cc2)cc1NC(=O)c1nsc2ccccc12 | inactive: -5.42%
21 | CC1CCC(NC(=O)c2ccc3c(c2)N(Cc2ccccc2)C(=O)c2ccccc2S3=O)CC1 (stereo not drawn) | inactive: -12.1%
22 | COc1cc(-c2nnn(CC(=O)Nc3ccc(OC(F)(F)F)cc3)n2)cc(OC)c1OC | inactive: -13.1%
23 | CCOC(=O)c1c(C)[nH]c(CCC(=O)Nc2cc(C)ccc2OC)c1C | inactive: -10.7%
24 | Cc1cccc(C)c1NC(=O)c1oc2ccc3c(c2c1C)C(=O)CC(C)(C)O3 | inactive: 2.07%

Row | SMILES | activity change, negative = cytotoxicity
25 | Cc1cccn2c(=O)c(C(=O)NCCCN3CCCCC3C)c(O)nc12 (stereo not drawn) | inactive: 8.04%
26 | O=C(Cn1ncc2c1-c1ccccc1OC2)N1CCN(c2ccccc2F)CC1 | inactive: 1.6%
27 | COc1ccccc1CNC(=O)C1CCCN(S(=O)(=O)c2ccc3c(c2)CCCN3C(C)=O)C1 (stereo not drawn) | inactive: -12.2%
28 | O=C(CSCc1ccccc1Cl)N1CCN(c2ccc(F)cc2)CC1 | inactive: -3.4%
29 | CN1C(C(=O)Nc2ccc(F)cc2F)=CC(c2ccco2)=NS1(=O)=O | inactive: 3.94%
30 | Cc1nnc(NCc2ccccc2)c2c1nnn2Cc1ccccc1Cl | inactive: -3.08%
31 | CCc1ccc2c(c1)c(=O)c(S(=O)(=O)c1ccc(F)cc1)cn2CC(=O)Nc1ccc(C)cc1C | inactive: 6.05%
32 | Cc1ccc(CNC(=O)C2CCCN(S(=O)(=O)c3cccc4nsnc34)C2)cc1 (stereo not drawn) | inactive: -2.27%
33 | CCCn1ccc2c(OCC(=O)NCc3ccc(C)cc3)cccc2c1=O | inactive: 9.56%
34 | CCc1nn2c(=O)cc(COC(=O)c3cccc(NC(=O)c4ccccc4Cl)c3)nc2s1 | inactive: 10.6%
35 | Cc1cc2ncn(CCCCOc3ccccc3)c2cc1C | inactive: -19.4%
36 | Cc1cccc(NC(=O)c2ccc(N(Cc3ccccc3)S(C)(=O)=O)cc2)c1 | inactive: 24.7%
37 | COc1ccc(CNC(=O)c2cnc3sc(N4CCCC4)nn3c2=O)cc1OC | inactive: -1.28%
38 | Cc1ccc2c(c1)C(c1ccc(F)cc1)N(C(=O)COc1ccc(Cl)cc1Cl)CC(=O)N2 (stereo not drawn) | inactive: -28.5%
39 | COc1ccccc1N1CCN(C(=O)c2nn(-c3ccc(C)cc3)c(=O)n(C)c2=O)CC1 | inactive: 11.8%
40 | CC(=O)c1c(C)nc2nc(-c3ccccc3)nn2c1C | inactive: 14.6%
41 | COC(=O)C1=C(CS(=O)(=O)c2cc(Cl)ccc2OC)NC(=O)NC1c1ccccc1 (stereo not drawn) | inactive: 5.07%
42 | CCCCOc1ccc(C(=O)N2CCN(CCc3ccncc3)CC2)cc1 | inactive: 18.2%
43 | Cc1cc2nnc(SCC(=O)Nc3ccc(F)c(Cl)c3)n2c2ccccc12 | inactive: 10.6%
44 | COc1cc(OC)c(NC(=O)C2CCCN(c3ncnc4c3nc3n4CCCCC3)C2)cc1Cl (stereo not drawn) | inactive: 2.56%
45 | O=C(COc1ccccc1Cl)NCC1(N2CCOCC2)CCCCC1 | inactive: -15.8%
46 | CCc1ccc(OCC(=O)Nc2cc3oc4ccccc4c3cc2OC)cc1 | inactive: 4.37%
47 | CCc1ccccc1NC(=O)Cn1c(=O)n(Cc2ccc3c(c2)OCO3)c(=O)c2ccc(C(=O)NC3CCCCC3)cc21 | inactive: 11.7%
48 | Cc1ccccc1-c1nc(CS(=O)(=O)CC(=O)NCC(C)c2ccccc2)c(C)o1 (stereo not drawn) | inactive: -4.06%
